Test results taken from the supplement of paper PMC11417369.
± gives the standard deviation of the averaged measurements. Some of the results follow.

What follows are sequences tested on PfAP2-EXP AP2 domain (GST-tagged) (assay: gcPBM binding intensity (ln(normalized median fluorescence intensity)); higher = stronger DNA binding).
Method in brief: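 The binding buffer was 1× PBS containing 1% milk, 0.2 mg/ml BSA, 0.5% salmon testes DNA and 0.03% Triton X-100. In it, GST-tagged P. falciparum DNA-binding domains expressed in E. coli were applied for 1 h to an Agilent 4 × 180k array of primer-extended double-stranded 36-bp intergenic genomic probes plus negative controls. Binding intensity, read with Alexa488 anti-GST antibody and a 488 nm scan, is the highest Masliner-normalised natural-log median intensity across replicate spots of either probe orientation.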

Sequence | gcPBM binding intensity (ln)
TATAGCTATGTATTCACACATAATATAAACTTTAAT [CACACA_site5889] | 8.36 ± 0.59
TGTATTATATAAAATTGTACATGCGAATTGTATAAC [XGTACX_site902] | 9.26 ± 0.46
AAAATGAACTCACGAGCACACACACCCATATATATA [CACACA_site8247] | 8.76 ± 0.33
ATTGTTTTATATAGAACACACATAAAAATATATATG [CACACA_site1193] | 8.44 ± 0.38
TAATTTTTTTTAATAACACACATATATATATATATA [CACACA_site813] | 10.47 ± 0.042
AAAGGATGTAATATAAACATATATATGTATATATAT [TGCATGCA_negctrl_site347] | 8.55 ± 0.27
ATAAAATGAAATATATATGTGTATGCTTAACTTGTT [CACACA_negctrl_site431] | 8.46 ± 0.38
TAATATTCCTTTTTAACACACATATGAACAAATAAA [CACACA_site153] | 8.57 ± 0.49
TTAAATAATATTAGCCGTACAATTTAAAGATAATAA [XGTACX_site8503] | 8.52 ± 0.33
AATTATAGCTGTATCTGTACGCATTTATTTATAGAC [XGTACX_site5959] | 8.65 ± 0.21
GAAAGGGCAGGAACTATTAATACACTGATCGATAAG [CACACA_negctrl_site1458] | 8.63 ± 0.48
AAAAAAAAGTATGATTCTAAATTTATGTATATATAA [GTGCAC_negctrl_site669] | 8.22 ± 0.45
TTTAATACTTTATATGCATGCAGAGAAAAATGCTTG [TGCATGCA_site286] | 9.835 ± 0.092
ATGAATATAATGAAGTGTACATAAAAATAATAAATA [XGTACX_site2481] | 8.97 ± 0.42
TTTGAAATATATTTAGTGCATATATATTGATTATAA [GTGCAC_site9604] | 8.43 ± 0.099
ATACATATAGGATGCACACATAATTCAAATACAATA [CACACA_site651] | 8.62 ± 0.31
ATCTAGTACATACATACACACAACAATGTTATGAGA [CACACA_site3989] | 8.52 ± 0.36
CAATTTTGCCCTTCCTGTACATATATTGAAAAATAT [XGTACX_site6388] | 8.6 ± 0.25
TAAATATTTATAAACACACAAATATTTATATTTATA [CACACA_site6166] | 8.08 ± 0.3

Sequence | gcPBM binding intensity (ln)
AGGGACATATATATCACACACAAAAATTAGTCCCTT [CACACA_site2778] | 8.68 ± 0.49
TTTATTTATTAATACACACACACACGCCCACAAAAT [CACACA_site6253] | 9.21 ± 0.42
AAATAGAGAAATACAAGTACATATCAAACCAATCTA [XGTACX_site2756] | 8.52 ± 0.42
CTTATACATAAATTTTGTACACACAAAAAAAAAAAA [XGTACX_site2665] | 8.5 ± 0.55
TAAAAATATAGGTATACACACATATAAATATAAATA [CACACA_site7785] | 8.54 ± 0.4
ATAAATATAAATATATGTACATATATATATATATAT [XGTACX_site7433] | 10.2 ± 0.15
GATTTTAAAATAATTACACACTTGATTATGTCCAAA [CACACA_site3491] | 8.46 ± 0.4
AAGACACAAAAACACACACACATACATACATACATA [CACACA_site454] | 8.77 ± 0.39
TATGTTGATGATGATAGTACATATGAGTTCAAAAAA [XGTACX_site7712] | 8.57 ± 0.34
TGTTTTGTTGTGTATTGTACTAATATAAATATATAA [XGTACX_site1852] | 8.78 ± 0.46
TTTTATGATTGACACACACACAAAAAAAAAAAAAAA [CACACA_site7860] | 8.2 ± 0.43
TAAAAAAACGCACTCGTACACACATATTTTCTTTCT [CACACA_site3090] | 8.665 ± 0.049
TATATTTGGAAAACATGTACATATAACAATATGTAA [XGTACX_site324] | 8.61 ± 0.38
AATAAAAAAGGAAACAAATTAATATATATATATATA [CACACA_negctrl_site467] | 10 ± 0.38
CGTACATAATTTTAATCACACACAAACAAACACATA [CACACA_site7947] | 8.88 ± 0.56
AAAAAAAGAAATAATAAAAAATATATATATATATAT [GTGCAC_negctrl_site702] | 10.1 ± 0.44
ATGTTGTCAAAAAAATGTACTTACATAATATTTTCC [XGTACX_site1732] | 8.37 ± 0.29
TATAAATACTTATATGTACACACATATAGATATATA [CACACA_site8819] | 8.27 ± 0.18
CGCATACACCAACACACACACACATATATATATATA [CACACA_site635] | 10.2 ± 0.21

Sequence | gcPBM binding intensity (ln)
ATCTAATATATATTCTGTACGTAATTAAAACCACAA [XGTACX_site3152] | 8.74 ± 0.3
TAGATCTTATTTACAAGTACATATATACGATTCATT [XGTACX_site7578] | 8.52 ± 0.35
AGAAGTCTGTAATGATGTACTGGAAAAATATAAATA [XGTACX_site8148] | 8.47 ± 0.36
TTTTTTTTTTAAAAAACACACACCTAAACAAGATAT [CACACA_site875] | 8.84 ± 0.37
ATATATATATATATTTGTACATATATATAATTTTTC [XGTACX_site7460] | 9.98 ± 0.18
AAAATAAAAAAAAAAGGTACACAAAAAGATGGACTG [XGTACX_site2650] | 8.71 ± 0.52
TATAATTGTCTTCACACACACATATATATATATATA [CACACA_site2743] | 10.2 ± 0.29
AAAAAACGACCTTACGCACACATTATTCTAGTCTAT [CACACA_site2349] | 8.74 ± 0.3
TCAAATTATATGAGTGGTACACATGTAATATTTTTA [XGTACX_site6518] | 8.29 ± 0.28
ATATATATATATATATGTACTTATTAAGATTAAAAA [XGTACX_site61] | 10.2 ± 0.2
ATATTTTGTATAATCACACACACTATTATTAAATAG [CACACA_site2612] | 8.44 ± 0.41
TTACATTTTTTATGTTTTTTTATATTGCAAAAAAAT [CACACA_negctrl_site1050] | 8.52 ± 0.33
AAAAAAATATATATTACACACATATATACATATATA [CACACA_site3125] | 8.22 ± 0.34
TTAAATATAAAAAGTAGTACATTTATATTTACCATA [XGTACX_site2962] | 8.34 ± 0.28
TATAAATATAAATACACACACACATCAATACAGATA [CACACA_site5850] | 8.64 ± 0.61
ATTAATAATATTCCTTGTACATGATTTTTCTAAATA [XGTACX_site7099] | 8.67 ± 0.41
AAAAAAAAAAAAAAAACACACATACACCCCCACCCA [CACACA_site9117] | 10.4 ± 0.3
TCTTTTGAACAAATTTGTACGTATATAAAAATATTT [XGTACX_site6547] | 8.69 ± 0.31
